PubChem BioAssay AID2202238 (Ras Initiative Chemistry Research Team, Frederick National …, 2025)
Some of the results follow. These are further read-outs of the screen, such as a control signal, another cell line or another target. No call is given for them.

Target: GTPase KRas (Homo sapiens) (UniProt P01116)
Test: Fragment capture on engineered cysteines, share of protein labelled (AID 2202238)
Set-up: protein at 5 µM with 500 µM competing thiol for 1.5 h
Conditions: KRAS G12D cysteine mutants, disulfide tethering, MALDI-TOF labeling, stronger effect = higher value, fragment at 500 µM
[1] = measured here: G60C mutant labeling
[2] = measured here: G75C mutant labeling
[3] = measured here: H94C mutant labeling
[4] = measured here: I36C mutant labeling
[5] = measured here: L120C mutant labeling
[6] = measured here: M67C mutant labeling
[7] = measured here: M72C mutant labeling
[8] = measured here: N26C mutant labeling
[9] = measured here: N86C mutant labeling
[10] = measured here: P121C mutant labeling
[11] = measured here: S122C mutant labeling
[12] = measured here: S136C mutant labeling

UniProt P01116, sequence (P01116 whole entry, looked up, the tested form may be a part): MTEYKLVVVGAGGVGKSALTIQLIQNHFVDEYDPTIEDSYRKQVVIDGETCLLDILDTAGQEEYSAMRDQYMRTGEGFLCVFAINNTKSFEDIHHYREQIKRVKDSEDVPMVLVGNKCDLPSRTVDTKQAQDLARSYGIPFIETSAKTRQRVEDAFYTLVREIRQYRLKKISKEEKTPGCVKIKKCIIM

CCCc1nc2ccccc2n1CCC(=O)NCCS
percent labeling [1]: 38.1% | percent labeling [2]: 14.2% | percent labeling [3]: 30.9% | percent labeling [4]: 24.2% | percent labeling [5]: 27.9% | percent labeling [6]: 37.1% | percent labeling [7]: 16.2% | percent labeling [8]: 36.5% | percent labeling [9]: 27.2% | percent labeling [10]: 28.8% | percent labeling [11]: 24.8% | percent labeling [12]: 43.9%

CC(C)c1cc(C(=O)NCCS)nn1-c1ccccc1
percent labeling [1]: 22.4% | percent labeling [2]: 9.1% | percent labeling [3]: 16% | percent labeling [4]: 10.8% | percent labeling [5]: 21.5% | percent labeling [6]: 14.8% | percent labeling [7]: 22.8% | percent labeling [8]: 24.5% | percent labeling [9]: 9% | percent labeling [10]: 14.8% | percent labeling [11]: 12.2% | percent labeling [12]: 30.7%

O=C(NCCS)c1cccc(C(F)(F)F)c1
percent labeling [1]: 54.1% | percent labeling [2]: 21.3% | percent labeling [3]: 39.8% | percent labeling [4]: 19.1% | percent labeling [5]: 21% | percent labeling [6]: 17.6% | percent labeling [7]: 54.2% | percent labeling [8]: 28.5% | percent labeling [9]: 15.1% | percent labeling [10]: 22.9% | percent labeling [11]: 15.6% | percent labeling [12]: 35.4%

O=C(CCS)N1CCC(Sc2cccc(Cl)c2)C1 (stereo unspecified)
percent labeling [2]: 17.1% | percent labeling [3]: 30.3% | percent labeling [4]: 24.1% | percent labeling [5]: 24.3% | percent labeling [6]: 30.8% | percent labeling [7]: 35% | percent labeling [9]: 18.4% | percent labeling [10]: 24.1% | percent labeling [11]: 14% | percent labeling [12]: 38.5%

O=C(NCCS)c1ccccc1-n1cc(Br)cn1
percent labeling [1]: 49.2% | percent labeling [2]: 19.8% | percent labeling [3]: 35% | percent labeling [4]: 24% | percent labeling [5]: 30.4% | percent labeling [6]: 32.7% | percent labeling [7]: 35.9% | percent labeling [8]: 39.2% | percent labeling [9]: 23.3% | percent labeling [10]: 24.5% | percent labeling [11]: 21.1% | percent labeling [12]: 33.7%

COc1cccc(CCN(CC(F)F)C(=O)CCS)c1
percent labeling [2]: 11% | percent labeling [3]: 35.4% | percent labeling [4]: 29.9% | percent labeling [5]: 20.7% | percent labeling [6]: 33.5% | percent labeling [7]: 39.4% | percent labeling [9]: 24.4% | percent labeling [10]: 25% | percent labeling [11]: 26% | percent labeling [12]: 51.1%

CCn1cc(-c2[nH]ncc2C(=O)NCCS)cn1
percent labeling [1]: 24.7% | percent labeling [2]: 18.6% | percent labeling [3]: 34.4% | percent labeling [4]: 29.8% | percent labeling [5]: 35.5% | percent labeling [6]: 38% | percent labeling [7]: 34% | percent labeling [8]: 48.1% | percent labeling [9]: 28.1% | percent labeling [10]: 35.1% | percent labeling [11]: 35.3% | percent labeling [12]: 49.7%

CN(CCNC(=O)CCS)c1ccccn1
percent labeling [2]: 18.6% | percent labeling [3]: 30.9% | percent labeling [4]: 29.5% | percent labeling [5]: 21.7% | percent labeling [6]: 31.5% | percent labeling [7]: 19.3% | percent labeling [9]: 20.1% | percent labeling [10]: 28.8% | percent labeling [11]: 29.2% | percent labeling [12]: 44.9%

O=C(CCS)Nc1cc2c3c(c1)CCC(=O)N3CCC2
percent labeling [2]: 8.5% | percent labeling [3]: 23.1% | percent labeling [4]: 20.5% | percent labeling [5]: 14.4% | percent labeling [6]: 21.7% | percent labeling [7]: 58.7% | percent labeling [9]: 5% | percent labeling [10]: 13.7% | percent labeling [11]: 17.2% | percent labeling [12]: 33.6%

Cc1nn(-c2ccccc2)c2sc(C(=O)NCCS)cc12
percent labeling [1]: 35.4% | percent labeling [2]: 18.6% | percent labeling [3]: 21.1% | percent labeling [4]: 25.7% | percent labeling [5]: 20.4% | percent labeling [6]: 9.4% | percent labeling [7]: 76.1% | percent labeling [8]: 34.7% | percent labeling [9]: 13% | percent labeling [10]: 16.5% | percent labeling [11]: 6.9% | percent labeling [12]: 28.8%

O=C(NCCS)C1(C(F)(F)F)CCN(Cc2ccccc2)C1 (stereo unspecified)
percent labeling [1]: 35.7% | percent labeling [2]: 24.1% | percent labeling [3]: 25% | percent labeling [4]: 15.7% | percent labeling [5]: 16.4% | percent labeling [6]: 28.1% | percent labeling [7]: 41.4% | percent labeling [8]: 32.3% | percent labeling [9]: 26.3% | percent labeling [10]: 16.2% | percent labeling [11]: 13.2% | percent labeling [12]: 28.7%

Cc1cccc(C(CC(=O)NCCS)NC(N)=O)c1 (stereo unspecified)
percent labeling [1]: 43.2% | percent labeling [2]: 15.3% | percent labeling [3]: 31.9% | percent labeling [4]: 30.6% | percent labeling [5]: 44.9% | percent labeling [6]: 35.7% | percent labeling [7]: 29.1% | percent labeling [8]: 38.1% | percent labeling [9]: 27.3% | percent labeling [10]: 37.3% | percent labeling [11]: 34.1% | percent labeling [12]: 43.4%

O=C(NCCS)c1ccc2noc(-c3ccc(F)cc3)c2c1
percent labeling [1]: 14.2% | percent labeling [2]: 4.6% | percent labeling [3]: 10.2% | percent labeling [4]: 7.8% | percent labeling [5]: 7.3% | percent labeling [6]: 8.6% | percent labeling [7]: 20.1% | percent labeling [8]: 26.3% | percent labeling [9]: 10.1% | percent labeling [10]: 15.6% | percent labeling [11]: 3.1% | percent labeling [12]: 9.6%

Cc1nc2ccccc2c(C)c1CC(=O)NCCS
percent labeling [1]: 29.3% | percent labeling [2]: 4.9% | percent labeling [3]: 22.4% | percent labeling [4]: 18.6% | percent labeling [5]: 36.2% | percent labeling [6]: 23.3% | percent labeling [7]: 16.3% | percent labeling [8]: 27.7% | percent labeling [9]: 16.8% | percent labeling [10]: 19.1% | percent labeling [11]: 13.5% | percent labeling [12]: 38.4%

Cn1cc(C(=O)NCCS)c2ccccc2c1=O
percent labeling [1]: 43.9% | percent labeling [2]: 20.9% | percent labeling [3]: 36% | percent labeling [4]: 26.8% | percent labeling [5]: 36.9% | percent labeling [6]: 31.7% | percent labeling [7]: 51.7% | percent labeling [8]: 48.1% | percent labeling [9]: 22.9% | percent labeling [10]: 30.2% | percent labeling [11]: 28.5% | percent labeling [12]: 51.7%

O=C(CCS)NCCn1cncc1-c1ccccc1
percent labeling [2]: 14.1% | percent labeling [3]: 29.3% | percent labeling [4]: 37.1% | percent labeling [5]: 42.3% | percent labeling [6]: 39.8% | percent labeling [7]: 31.7% | percent labeling [9]: 13.8% | percent labeling [10]: 36.5% | percent labeling [11]: 32.6% | percent labeling [12]: 61.3%

CN(C)CCNS(=O)(=O)c1cccc(NC(=O)CCS)c1
percent labeling [2]: 21% | percent labeling [3]: 46% | percent labeling [4]: 52.8% | percent labeling [5]: 42.3% | percent labeling [6]: 45.6% | percent labeling [7]: 42.8% | percent labeling [9]: 70.1% | percent labeling [10]: 28.7% | percent labeling [11]: 36.6% | percent labeling [12]: 52%

Cc1ccn2c(CN3CCN(C(=O)CCS)CC3)c(C)nc2c1
percent labeling [2]: 12.9% | percent labeling [3]: 24.5% | percent labeling [4]: 27.9% | percent labeling [5]: 24.8% | percent labeling [6]: 36.3% | percent labeling [7]: 19% | percent labeling [9]: 16.9% | percent labeling [10]: 22.4% | percent labeling [11]: 23.1% | percent labeling [12]: 45.9%

O=C(CCS)N1CCN(Cc2noc(C3CC3)n2)CC1
percent labeling [2]: 9.2% | percent labeling [3]: 29.7% | percent labeling [4]: 37.4% | percent labeling [5]: 28.8% | percent labeling [6]: 39.6% | percent labeling [7]: 22.8% | percent labeling [9]: 29% | percent labeling [10]: 36.5% | percent labeling [11]: 36.3% | percent labeling [12]: 53.4%

O=C(NCCS)C1(C2CCCCO2)CCCO1 (stereo unspecified)
percent labeling [1]: 23.4% | percent labeling [2]: 9.4% | percent labeling [3]: 26.6% | percent labeling [4]: 18.3% | percent labeling [5]: 28.4% | percent labeling [6]: 24% | percent labeling [7]: 13% | percent labeling [8]: 29.7% | percent labeling [9]: 21.2% | percent labeling [10]: 26.1% | percent labeling [11]: 29.1% | percent labeling [12]: 39.7%

Cc1ccc(-n2ccc(CNC(=O)CCS)n2)cc1
percent labeling [2]: 10.5% | percent labeling [3]: 29.5% | percent labeling [4]: 24.4% | percent labeling [5]: 27.3% | percent labeling [6]: 23.4% | percent labeling [7]: 36.3% | percent labeling [9]: 11% | percent labeling [10]: 19.9% | percent labeling [11]: 21.5% | percent labeling [12]: 34.5%

COc1ccccc1C1(C)CC1C(=O)NCCS (stereo unspecified)
percent labeling [1]: 52% | percent labeling [2]: 20.1% | percent labeling [3]: 35% | percent labeling [4]: 21.8% | percent labeling [5]: 23.6% | percent labeling [6]: 17.4% | percent labeling [7]: 35% | percent labeling [8]: 30.4% | percent labeling [9]: 24.2% | percent labeling [10]: 25.1% | percent labeling [11]: 9.8% | percent labeling [12]: 33.5%

O=C(CCS)N1CCc2cc(Br)c(Cl)cc21
percent labeling [2]: 31.2% | percent labeling [3]: 43.1% | percent labeling [4]: 24.5% | percent labeling [5]: 11.8% | percent labeling [6]: 20.5% | percent labeling [7]: 55.1% | percent labeling [9]: 24.7% | percent labeling [10]: 15.2% | percent labeling [11]: 5.8% | percent labeling [12]: 32.2%
